Results published in the supplement of paper PMC7826260.
The other results are listed elsewhere or left out. Viral Rep nickase domains cut single-stranded DNA in vitro for 1 h at 37 °C with 3 µM enzyme; only the middle of the 90-letter strands is printed. A value is the log2 ratio of uncut reads to the pool without enzyme; more negative means more cut, near 0 not cut, and no call is made. Reads are scaled to the total; where an enzyme cuts many sequences, the uncut ones exceed 0.

Columns and labels:
Assay in all cases: uncleaved DNA left, log2 of reads against the no-enzyme library (log2 ratio); higher = less cleavage (more negative = more Rep cleavage of the k-mer); sequences stand for … in CTCGTCCG…ACCGGAGA
[1] = tested on: T1, Rep nickase domain of Muscovy duck circovirus
T1 sequence (residues 1-111 of Rep, tag left off): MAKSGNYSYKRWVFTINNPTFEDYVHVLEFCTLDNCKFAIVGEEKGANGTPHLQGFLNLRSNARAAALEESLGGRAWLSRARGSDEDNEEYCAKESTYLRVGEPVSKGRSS
Experimental: (§1)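 A pool of 90-nt single-stranded DNAs with seven random bases just before the constant AC of the nick site (name = the seven bases) was cut by 3 µM recombinant His6-SUMO-tagged Rep nickase domain (300 nM DNA, 50 mM HEPES pH 8.0, 50 mM NaCl, 1 mM MnCl2, 1 h, 37 °C, three replicates). Uncut DNA was amplified and sequenced.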

[2] = tested on: T2, Rep nickase domain of banana bunchy top virus
T2 sequence (residues 1-94 of Rep, tag left off): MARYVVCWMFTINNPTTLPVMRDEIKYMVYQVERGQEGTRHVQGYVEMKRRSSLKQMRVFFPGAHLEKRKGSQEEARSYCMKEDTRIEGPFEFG
Experimental: as §1

[3] = tested on: T3, Rep nickase domain of cabbage leaf curl virus
T3 sequence (residues 1-116 of Rep, tag left off): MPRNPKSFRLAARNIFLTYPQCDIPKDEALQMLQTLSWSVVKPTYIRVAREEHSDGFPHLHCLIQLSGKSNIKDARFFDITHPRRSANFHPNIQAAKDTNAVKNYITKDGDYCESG
Experimental: as §1

[4] = tested on: T4, Rep nickase domain of chickpea chlorotic dwarf virus
T4 sequence (residues 1-124 of Rep, tag left off): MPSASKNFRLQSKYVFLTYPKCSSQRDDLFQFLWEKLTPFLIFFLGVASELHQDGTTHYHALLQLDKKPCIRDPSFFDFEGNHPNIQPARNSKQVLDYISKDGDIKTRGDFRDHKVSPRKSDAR
Experimental: as §1

[5] = tested on: T5, Rep nickase domain of faba bean necrotic yellows virus
T5 sequence (residues 1-98 of Rep, tag left off): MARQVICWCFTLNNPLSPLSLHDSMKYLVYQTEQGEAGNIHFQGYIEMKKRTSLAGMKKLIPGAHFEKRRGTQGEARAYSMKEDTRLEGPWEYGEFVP
Experimental: as §1

[6] = tested on: T6, Rep nickase domain of maize striate mosaic virus
T6 sequence (residues 1-117 of Rep, tag left off): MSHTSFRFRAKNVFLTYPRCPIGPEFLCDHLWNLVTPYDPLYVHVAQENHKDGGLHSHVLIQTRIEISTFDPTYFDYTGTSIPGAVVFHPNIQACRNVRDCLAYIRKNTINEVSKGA
Experimental: as §1

[7] = tested on: T7, Rep nickase domain of porcine circovirus 2
T7 sequence (residues 2-116 of Rep, tag left off): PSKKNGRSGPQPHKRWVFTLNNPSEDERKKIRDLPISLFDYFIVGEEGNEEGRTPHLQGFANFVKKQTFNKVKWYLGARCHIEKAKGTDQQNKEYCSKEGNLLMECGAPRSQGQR
Experimental: as §1

[8] = tested on: T8, Rep nickase domain of tomato golden mosaic virus
T8 sequence (residues 1-124 of Rep, tag left off): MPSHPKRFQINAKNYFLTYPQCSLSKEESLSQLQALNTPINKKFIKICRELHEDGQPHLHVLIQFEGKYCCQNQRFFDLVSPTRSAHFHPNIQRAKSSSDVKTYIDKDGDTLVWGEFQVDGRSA
Experimental: as §1

[9] = tested on: T9, Rep nickase domain of tomato yellow leaf curl virus
T9 sequence (residues 1-136 of Rep, tag left off): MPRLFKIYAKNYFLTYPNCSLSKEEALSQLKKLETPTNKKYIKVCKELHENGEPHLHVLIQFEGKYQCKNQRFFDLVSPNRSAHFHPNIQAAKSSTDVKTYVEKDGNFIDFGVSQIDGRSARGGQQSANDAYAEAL
Experimental: as §1

[10] = tested on: T10, Rep nickase domain of wheat dwarf virus
T10 sequence (residues 1-137 of Rep, tag left off): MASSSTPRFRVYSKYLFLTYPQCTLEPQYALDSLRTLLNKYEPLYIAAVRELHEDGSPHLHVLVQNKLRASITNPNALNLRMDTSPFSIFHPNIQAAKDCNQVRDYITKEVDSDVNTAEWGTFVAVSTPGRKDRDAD
Experimental: as §1

Row | Sequence | uncleaved DNA left (log2) [1] | uncleaved DNA left (log2) [2] | uncleaved DNA left (log2) [3] | uncleaved DNA left (log2) [4] | uncleaved DNA left (log2) [5] | uncleaved DNA left (log2) [6] | uncleaved DNA left (log2) [7] | uncleaved DNA left (log2) [8] | uncleaved DNA left (log2) [9] | uncleaved DNA left (log2) [10]
1 | AGGTAGG | 0.0819 | -0.0293 | 0.0337 | 0.298 | 0.0844 | -0.0817 | 0.124 | 0.0299 | -0.066 | -0.112
2 | GACTTGA | 0.106 | 0.12 | 0.243 | 0.673 | 0.099 | 0.594 | -0.148 | 0.127 | 0.0953 | 0.0563
3 | TGAGACT | -0.0563 | -0.0438 | 0.141 | 0.449 | -0.12 | 1.57 | 0.0704 | -0.146 | -0.00509 | 0.05
4 | GGCCGCT | 0.156 | 0.0835 | 0.362 | 0.566 | 0.0501 | 0.79 | 0.15 | 0.0957 | 0.116 | 0.188
5 | TCAATGT | 0.0727 | -0.0621 | 0.0509 | -0.308 | 0.0903 | -0.678 | 0.113 | 0.127 | -0.0181 | -0.076
6 | ACTTTAG | 0.237 | 0.0941 | -0.673 | -0.268 | 0.0851 | -1.1 | 0.16 | 0.0822 | 0.0692 | 0.0384
7 | AGGTGGC | 0.0954 | -0.00104 | 0.146 | 0.178 | 0.017 | -0.476 | 0.272 | 0.0817 | 0.0686 | 0.0656
8 | CTGCACC | -0.127 | -0.156 | -0.104 | 0.129 | -0.0246 | -0.109 | 0.0256 | -0.106 | -0.146 | -0.0642
9 | AACACGT | 0.000223 | -0.113 | -0.337 | -1.24 | -0.0865 | -0.909 | -0.0787 | -0.143 | -0.0791 | -0.223
10 | GGGTGAA | 0.00778 | 0.168 | 0.934 | 1.92 | 0.0585 | 2.18 | 0.235 | 0.0782 | 0.112 | 0.163
11 | GTTTTCC | 0.0113 | -0.032 | 0.354 | 0.776 | -0.041 | 1.57 | 0.0154 | -0.0501 | 0.0791 | 0.0885
12 | AACCCCG | -0.0715 | 0.0163 | -0.864 | -0.246 | -0.0561 | -0.801 | -0.601 | -0.0213 | -0.0172 | -0.0934
13 | TGGTCTA | -0.0298 | -0.0217 | 0.286 | 0.232 | -0.144 | 1.03 | -0.153 | -0.0692 | 0.0775 | 0.0504
14 | CCCAATC | 0.124 | -0.132 | -0.226 | -0.16 | 0.0469 | -0.386 | 0.186 | -0.0145 | -0.0256 | -0.0242
15 | TCGCTAG | 0.0122 | 0.0479 | -0.113 | -0.155 | -0.00874 | -0.762 | 0.139 | -0.0341 | 0.133 | 0.146
16 | CAGATTC | -0.0199 | -0.0496 | -0.133 | -0.314 | -0.0606 | -0.848 | -0.185 | 0.00624 | -0.0185 | -0.0784
17 | CAGCCCG | -0.0454 | -0.0572 | -0.764 | -0.361 | -0.112 | -0.961 | 0.0319 | -0.15 | -0.0865 | -0.198
18 | GCAGGCC | -0.108 | 0.0623 | -0.0185 | 0.43 | -0.0233 | -0.0906 | 0.0397 | -0.0229 | -0.0124 | -0.0761
19 | ATGTTCG | -0.00729 | 0.0348 | -0.859 | -0.0144 | 0.0437 | -0.954 | 0.151 | -0.0316 | 0.0305 | -0.131
20 | TGGCCAG | -0.0256 | 0.00894 | -0.213 | 0.127 | -0.0653 | -0.451 | 0.101 | -0.0813 | -0.011 | 0.12
21 | CGAGGAG | -0.00599 | 0.0201 | -0.384 | 0.00889 | -0.0048 | -0.557 | 0.0363 | 0.0753 | -0.114 | -0.0598
22 | AATTAGG | 0.17 | 0.0952 | 0.427 | 1.26 | 0.0815 | 0.943 | 0.208 | 0.164 | 0.0212 | 0.241
23 | AACCGAT | 0.117 | 0.0982 | 0.202 | 0.541 | 0.0173 | 0.967 | -0.194 | 0.108 | -0.123 | 0.134
24 | GATTGCA | -0.186 | -0.0595 | -0.676 | -0.345 | 0.0288 | -0.794 | -0.251 | -0.00512 | 0.117 | 0.0387
25 | GAGAGTT | 0.0595 | -0.313 | 0.247 | -0.298 | -0.291 | 1.35 | -2.53 | 0.114 | -0.00264 | 0.0963
26 | TGTGGCG | -0.0333 | -0.03 | -0.567 | 0.733 | 0.012 | -0.264 | 0.0871 | 0.00606 | -0.0103 | -0.151
27 | ATCACGA | 0.0257 | -0.0516 | -0.418 | -0.45 | 0.0878 | -1.09 | 0.114 | -0.00447 | 0.0162 | -0.115
28 | GCATATA | -0.0475 | 0.0743 | -0.00332 | -0.439 | 0.0409 | -0.00853 | 0.0568 | 0.0181 | 0.0363 | 0.0748
29 | CCTTGTC | -0.0097 | -0.123 | -0.144 | -0.559 | -0.139 | -0.97 | 0.00448 | -0.0702 | -0.106 | -0.129
30 | AGGCCAA | 0.0496 | 0.0108 | 0.574 | 0.894 | -0.00862 | 1.06 | 0.00127 | 0.101 | 0.11 | 0.124
